Reference: the supplement of paper PMC8728848
This is one part of the list.

Experiments:
Assay in all cases: glycan array binding signal (z-score within array); higher = stronger binding
Settings in all cases: glycan notation: IUPAC condensed, linker removed
[1] = biological target: Neu5Ac(a2-3)Gal(b1-3)[Fuc(a1-4)]GlcNAc(b1-3)Gal(b1-3)[Fuc(a1-4)]GlcNAc
Method in brief: (§1)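 Negative Z-scores can be read as non-binding. The Z-score is calculated within each array and then averaged across arrays of one protein sequence at different concentrations or buffers and across linkers. Arrays, 3228 in all, were curated from the Consortium for Functional Glycomics database and kept only where the protein sequence was available.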

[2] = biological target: Neu5Ac(a2-3)Gal(b1-3)[Fuc(a1-4)]GlcNAc(b1-3)Gal(b1-4)[Fuc(a1-3)]GlcNAc
Method in brief: as §1

[3] = biological target: Neu5Ac(a2-3)Gal(b1-3)[GlcNAc(b1-6)]GalNAc
Method in brief: as §1

[4] = biological target: Neu5Ac(a2-3)Gal(b1-3)[Neu5Ac(a2-6)]GalNAc
Method in brief: as §1

[5] = biological target: Neu5Ac(a2-3)Gal(b1-3)[Neu5Ac(a2-6)]GlcNAc(b1-3)[Fuc(a1-3)[Gal(b1-4)]GlcNAc(b1-6)]Gal(b1-4)Glc
Method in brief: as §1

[6] = biological target: Neu5Ac(a2-3)Gal(b1-3)]Neu5Ac(a2-3)Gal(b1-4)]GlcNAc
Method in brief: as §1

[7] = biological target: Neu5Ac(a2-3)Gal(b1-4)Glc
Method in brief: as §1

[8] = biological target: Neu5Ac(a2-3)Gal(b1-4)GlcNAc
Method in brief: as §1

[9] = biological target: Neu5Ac(a2-3)Gal(b1-4)GlcNAc(b1-2)Man
Method in brief: as §1

[10] = biological target: Neu5Ac(a2-3)Gal(b1-4)GlcNAc(b1-2)Man(a1-3)[GlcNAc(b1-4)][Neu5Ac(a2-3)Gal(b1-4)GlcNAc(b1-2)Man(a1-6)]Man(b1-4)GlcNAc(b1-4)GlcNAc
Method in brief: as §1

[11] = biological target: Neu5Ac(a2-3)Gal(b1-4)GlcNAc(b1-2)Man(a1-3)[Neu5Ac(a2-3)Gal(b1-4)GlcNAc(b1-2)Man(a1-6)]Man(b1-4)GlcNAc(b1-4)GlcNAc
Method in brief: as §1

[12] = biological target: Neu5Ac(a2-3)Gal(b1-4)GlcNAc(b1-2)Man(a1-3)[Neu5Ac(a2-3)Gal(b1-4)GlcNAc(b1-2)Man(a1-6)]Man(b1-4)GlcNAc(b1-4)[Fuc(a1-6)]GlcNAc
Method in brief: as §1

[13] = biological target: Neu5Ac(a2-3)Gal(b1-4)GlcNAc(b1-2)Man(a1-3)[Neu5Ac(a2-6)Gal(b1-4)GlcNAc(b1-2)Man(a1-6)]Man(b1-4)GlcNAc(b1-4)GlcNAc
Method in brief: as §1

[14] = biological target: Neu5Ac(a2-3)Gal(b1-4)GlcNAc(b1-2)[Neu5Ac(a2-3)Gal(b1-4)GlcNAc(b1-4)]Man(a1-3)[GlcNAc(b1-4)][Neu5Ac(a2-3)Gal(b1-4)GlcNAc(b1-2)[Neu5Ac(a2-3)Gal(b1-4)GlcNAc(b1-6)]Man(a1-6)]Man(b1-4)GlcNAc(b1-4)GlcNAc
Method in brief: as §1

[15] = biological target: Neu5Ac(a2-3)Gal(b1-4)GlcNAc(b1-2)[Neu5Ac(a2-3)Gal(b1-4)GlcNAc(b1-4)]Man(a1-3)[GlcNAc(b1-4)][Neu5Ac(a2-3)Gal(b1-4)GlcNAc(b1-4)Man(a1-6)]Man(b1-4)GlcNAc(b1-4)GlcNAc
Method in brief: as §1

[16] = biological target: Neu5Ac(a2-3)Gal(b1-4)GlcNAc(b1-2)[Neu5Ac(a2-3)Gal(b1-4)GlcNAc(b1-6)]Man(a1-6)[Neu5Ac(a2-3)Gal(b1-4)GlcNAc(b1-2)Man(a1-3)]Man(b1-4)GlcNAc(b1-4)GlcNAc
Method in brief: as §1

[17] = biological target: Neu5Ac(a2-3)Gal(b1-4)GlcNAc(b1-2)[Neu5Ac(a2-3)Gal(b1-4)GlcNAc(b1-6)]Man(a1-6)[Neu5Ac(a2-3)Gal(b1-4)GlcNAc(b1-2)Man(a1-3)][GlcNAc(b1-4)]Man(b1-4)GlcNAc(b1-4)GlcNAc
Method in brief: as §1

[18] = biological target: Neu5Ac(a2-3)Gal(b1-4)GlcNAc(b1-3)Gal
Method in brief: as §1

[19] = biological target: Neu5Ac(a2-3)Gal(b1-4)GlcNAc(b1-3)Gal(b1-3)GlcNAc
Method in brief: as §1

[20] = biological target: Neu5Ac(a2-3)Gal(b1-4)GlcNAc(b1-3)Gal(b1-4)GlcNAc
Method in brief: as §1

[21] = biological target: Neu5Ac(a2-3)Gal(b1-4)GlcNAc(b1-3)Gal(b1-4)GlcNAc(b1-2)Man(a1-3)[Neu5Ac(a2-3)Gal(b1-4)GlcNAc(b1-3)Gal(b1-4)GlcNAc(b1-2)Man(a1-6)]Man(b1-4)GlcNAc(b1-4)GlcNAc
Method in brief: as §1

[22] = biological target: Neu5Ac(a2-3)Gal(b1-4)GlcNAc(b1-3)Gal(b1-4)GlcNAc(b1-3)Gal(b1-4)GlcNAc
Method in brief: as §1

[23] = biological target: Neu5Ac(a2-3)Gal(b1-4)GlcNAc(b1-3)Gal(b1-4)GlcNAc(b1-3)Gal(b1-4)GlcNAc(b1-2)Man(a1-3)[Neu5Ac(a2-3)Gal(b1-4)GlcNAc(b1-3)Gal(b1-4)GlcNAc(b1-3)Gal(b1-4)GlcNAc(b1-2)Man(a1-6)]GalNAc
Method in brief: as §1

[24] = biological target: Neu5Ac(a2-3)Gal(b1-4)GlcNAc(b1-3)Gal(b1-4)GlcNAc(b1-3)GalNAc
Method in brief: as §1

[25] = biological target: Neu5Ac(a2-3)Gal(b1-4)GlcNAc(b1-3)Gal(b1-4)GlcNAc(b1-3)[Neu5Ac(a2-3)Gal(b1-4)GlcNAc(b1-3)Gal(b1-4)GlcNAc(b1-6)]GalNAc
Method in brief: as §1

[26] = biological target: Neu5Ac(a2-3)Gal(b1-4)GlcNAc(b1-3)Gal(b1-4)GlcNAc(b1-6)[Gal(b1-3)]GalNAc
Method in brief: as §1

[27] = biological target: Neu5Ac(a2-3)Gal(b1-4)GlcNAc(b1-3)Gal(b1-4)[Fuc(a1-3)]GlcNAc
Method in brief: as §1

[28] = biological target: Neu5Ac(a2-3)Gal(b1-4)GlcNAc(b1-3)GalNAc
Method in brief: as §1

[29] = biological target: Neu5Ac(a2-3)Gal(b1-4)GlcNAc(b1-3)[Neu5Ac(a2-3)Gal(b1-4)GlcNAc(b1-6)]GalNAc
Method in brief: as §1

[30] = biological target: Neu5Ac(a2-3)Gal(b1-4)GlcNAc(b1-6)GalNAc
Method in brief: as §1

B1: CaSRK1 (Capsicum annuum) (protein)
chain: MALCKIFPFAFILLSCSCYLISGQRFDYPTANLSTTWINSVSAPHSIDYTDGSRIRAILLRGTFGPRYACGFYCNGNCESYLFAIFIVQTNSASQITSPAIGFPQVVWSANRNNPVKINSTLQLTAEGDLVLRDADGTLAWSTNTAGKSVAGLSLTDEGNLALFDSKNATVWQSFDHPTDALVPGQKLVPGMKLTASVSRTNWTAGGLFALSAIDNGLVAFVESNPPQKYFEASVGGSNTSGGSNYVKYLNGSLTLFTHSADTTELILISITPASSAQYMKLESNGHLKVYEWTSRGWREVDDLLTGFRGECNYPTVCGRYGICTMGQCSCPTSSSSRTYFRPIDVRRPSLGCSEVTKLTCQNTKKHSPLEVEDVDYFAFKAGISDTDLNTCKRACLEKCSCKAAFFRSGLNSSRTRGDCYLPTEIFSIMNNEKDRTRYDSVAFIKVQV
- glycan array binding signal (z-score) [1]: -0.322
- glycan array binding signal (z-score) [2]: -0.201
- glycan array binding signal (z-score) [3]: 0.145
- glycan array binding signal (z-score) [4]: 0.393
- glycan array binding signal (z-score) [5]: 0.272
- glycan array binding signal (z-score) [6]: 0.462
- glycan array binding signal (z-score) [7]: -0.089
- glycan array binding signal (z-score) [8]: -0.189
- glycan array binding signal (z-score) [9]: 7.73
- glycan array binding signal (z-score) [10]: -0.597
- glycan array binding signal (z-score) [11]: -0.578
- glycan array binding signal (z-score) [12]: -0.48
- glycan array binding signal (z-score) [13]: -0.598
- glycan array binding signal (z-score) [14]: -0.421
- glycan array binding signal (z-score) [15]: 0.06
- glycan array binding signal (z-score) [16]: 0.059
- glycan array binding signal (z-score) [17]: -0.593
- glycan array binding signal (z-score) [18]: -0.591
- glycan array binding signal (z-score) [19]: -0.518
- glycan array binding signal (z-score) [20]: 0.418
- glycan array binding signal (z-score) [21]: 1.33
- glycan array binding signal (z-score) [22]: -0.207
- glycan array binding signal (z-score) [23]: 0.865
- glycan array binding signal (z-score) [24]: -0.141
- glycan array binding signal (z-score) [25]: -0.412
- glycan array binding signal (z-score) [26]: -0.485
- glycan array binding signal (z-score) [27]: -0.453
- glycan array binding signal (z-score) [28]: -0.357
- glycan array binding signal (z-score) [29]: -0.34
- glycan array binding signal (z-score) [30]: 0.207
